Experimental data: the supplement of paper PMC8728848
The other results are listed elsewhere or left out.

Columns and labels:
Test in all cases: glycan array binding signal (z-score within array); higher = stronger binding
Details in all cases: glycan notation: IUPAC condensed, linker removed
Glc(b1-6)Glc = biological target: Glc(b1-6)Glc
Procedure, shortened: (§1)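 The Consortium for Functional Glycomics database supplied 3228 glycan arrays, of which those lacking an available protein sequence were dropped. The binding signal, a within-array Z-score, was averaged across arrays of the same protein sequence and across linkers. Negative scores can be read as non-binding.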

GlcA(b1-3)Gal = biological target: GlcA(b1-3)Gal
Procedure, shortened: as §1

GlcA(b1-3)GlcNAc = biological target: GlcA(b1-3)GlcNAc
Procedure, shortened: as §1

GlcA(b1-6)Gal = biological target: GlcA(b1-6)Gal
Procedure, shortened: as §1

[1] = biological target: GlcA3S(b1-3)Gal(b1-4)GlcNAc(b1-2)Man
Procedure, shortened: as §1

[2] = biological target: GlcA3S(b1-3)Gal(b1-4)GlcNAc(b1-3)Gal(b1-4)Glc
Procedure, shortened: as §1

[3] = biological target: GlcNAc(a1-3)Gal(b1-4)GlcNAc
Procedure, shortened: as §1

[4] = biological target: GlcNAc(a1-4)Gal(b1-3)GlcNAc
Procedure, shortened: as §1

[5] = biological target: GlcNAc(a1-4)Gal(b1-4)GalNAc
Procedure, shortened: as §1

[6] = biological target: GlcNAc(a1-4)Gal(b1-4)GlcNAc
Procedure, shortened: as §1

[7] = biological target: GlcNAc(a1-4)Gal(b1-4)GlcNAc(b1-3)Gal(b1-4)Glc
Procedure, shortened: as §1

[8] = biological target: GlcNAc(a1-4)Gal(b1-4)GlcNAc(b1-3)Gal(b1-4)GlcNAc
Procedure, shortened: as §1

[9] = biological target: GlcNAc(a1-4)Gal(b1-4)GlcNAc(b1-3)Gal(b1-4)GlcNAc(b1-3)Gal(b1-4)GlcNAc
Procedure, shortened: as §1

[10] = biological target: GlcNAc(a1-4)Gal(b1-4)GlcNAc(b1-3)Gal(b1-4)[Fuc(a1-3)]GlcNAc(b1-3)Gal(b1-4)[Fuc(a1-3)]GlcNAc
Procedure, shortened: as §1

[11] = biological target: GlcNAc(a1-6)Gal(b1-4)GlcNAc
Procedure, shortened: as §1

[12] = biological target: GlcNAc(b1-2)Gal(b1-3)GalNAc
Procedure, shortened: as §1

[13] = biological target: GlcNAc(b1-2)Man(a1-3)[GlcNAc(b1-2)Man(a1-6)]Man(b1-4)GlcNAc(b1-4)GlcNAc
Procedure, shortened: as §1

[14] = biological target: GlcNAc(b1-2)Man(a1-3)[GlcNAc(b1-2)Man(a1-6)]Man(b1-4)GlcNAc(b1-4)[Fuc(a1-6)]GlcNAc
Procedure, shortened: as §1

[15] = biological target: GlcNAc(b1-2)Man(a1-3)[GlcNAc(b1-4)][GlcNAc(b1-2)Man(a1-6)]Man(b1-4)GlcNAc(b1-4)GlcNAc
Procedure, shortened: as §1

[16] = biological target: GlcNAc(b1-2)Man(a1-3)[GlcNAc(b1-4)][GlcNAc(b1-2)Man(a1-6)]Man(b1-4)GlcNAc(b1-4)[Fuc(a1-6)]GlcNAc
Procedure, shortened: as §1

[17] = biological target: GlcNAc(b1-2)[GlcNAc(b1-4)]Man(a1-3)[GlcNAc(b1-2)Man(a1-6)]Man(b1-4)GlcNAc(b1-4)GlcNAc
Procedure, shortened: as §1

[18] = biological target: GlcNAc(b1-2)[GlcNAc(b1-4)]Man(a1-3)[GlcNAc(b1-4)][GlcNAc(b1-2)Man(a1-6)]Man(b1-4)GlcNAc(b1-4)GlcNAc
Procedure, shortened: as §1

[19] = biological target: GlcNAc(b1-2)[GlcNAc(b1-4)]Man(a1-3)[GlcNAc(b1-4)][GlcNAc(b1-2)[GlcNAc(b1-6)]Man(a1-6)]Man(b1-4)GlcNAc(b1-4)GlcNAc
Procedure, shortened: as §1

[20] = biological target: GlcNAc(b1-2)[GlcNAc(b1-4)]Man(a1-3)[GlcNAc(b1-4)][GlcNAc(b1-2)[GlcNAc(b1-6)]Man(a1-6)]Man(b1-4)GlcNAc(b1-4)[Fuc(a1-6)]GlcNAc
Procedure, shortened: as §1

[21] = biological target: GlcNAc(b1-2)[GlcNAc(b1-6)]Man(a1-6)[GlcNAc(b1-2)Man(a1-3)]Man(b1-4)GlcNAc(b1-4)GlcNAc
Procedure, shortened: as §1

[22] = biological target: GlcNAc(b1-2)[GlcNAc(b1-6)]Man(a1-6)[GlcNAc(b1-2)Man(a1-3)]Man(b1-4)GlcNAc(b1-4)[Fuc(a1-6)]GlcNAc
Procedure, shortened: as §1

[23] = biological target: GlcNAc(b1-2)[GlcNAc(b1-6)]Man(a1-6)[GlcNAc(b1-4)][GlcNAc(b1-2)Man(a1-3)]Man(b1-4)GlcNAc(b1-4)GlcNAc
Procedure, shortened: as §1

GlcNAc(b1-3)Fuc = biological target: GlcNAc(b1-3)Fuc
Procedure, shortened: as §1

GlcNAc(b1-3)Gal = biological target: GlcNAc(b1-3)Gal
Procedure, shortened: as §1

[24] = biological target: GlcNAc(b1-3)Gal(b1-3)GalNAc
Procedure, shortened: as §1

GlcNAc(b1-3)Gal(b1-4)Glc = biological target: GlcNAc(b1-3)Gal(b1-4)Glc
Procedure, shortened: as §1

[25] = biological target: GlcNAc(b1-3)Gal(b1-4)GlcNAc
Procedure, shortened: as §1

[26] = biological target: GlcNAc(b1-3)Gal(b1-4)GlcNAc(b1-2)Man(a1-3)[GlcNAc(b1-3)Gal(b1-4)GlcNAc(b1-2)Man(a1-6)]Man(b1-4)GlcNAc(b1-4)GlcNAc
Procedure, shortened: as §1

[27] = biological target: GlcNAc(b1-3)Gal(b1-4)GlcNAc(b1-2)Man(a1-3)[GlcNAc(b1-3)Gal(b1-4)GlcNAc(b1-2)Man(a1-6)]Man(b1-4)GlcNAc(b1-4)[Fuc(a1-6)]GlcNAc
Procedure, shortened: as §1

[28] = biological target: GlcNAc(b1-3)Gal(b1-4)GlcNAc(b1-2)[GlcNAc(b1-3)Gal(b1-4)GlcNAc(b1-6)]Man(a1-6)[GlcNAc(b1-3)Gal(b1-4)GlcNAc(b1-2)Man(a1-3)]Man(b1-4)GlcNAc(b1-4)GlcNAc
Procedure, shortened: as §1

[29] = biological target: GlcNAc(b1-3)Gal(b1-4)GlcNAc(b1-3)Gal(b1-4)GlcNAc
Procedure, shortened: as §1

[30] = biological target: GlcNAc(b1-3)Gal(b1-4)GlcNAc(b1-3)Gal(b1-4)GlcNAc(b1-2)Man(a1-3)[GlcNAc(b1-3)Gal(b1-4)GlcNAc(b1-3)Gal(b1-4)GlcNAc(b1-2)Man(a1-6)]Man(b1-4)GlcNAc(b1-4)GlcNAc
Procedure, shortened: as §1

[31] = biological target: GlcNAc(b1-3)Gal(b1-4)GlcNAc(b1-3)Gal(b1-4)GlcNAc(b1-2)Man(a1-3)[GlcNAc(b1-3)Gal(b1-4)GlcNAc(b1-3)Gal(b1-4)GlcNAc(b1-2)Man(a1-6)]Man(b1-4)GlcNAc(b1-4)[Fuc(a1-6)]GlcNAc
Procedure, shortened: as §1

[32] = biological target: GlcNAc(b1-3)Gal(b1-4)GlcNAc(b1-3)Gal(b1-4)GlcNAc(b1-2)[GlcNAc(b1-3)Gal(b1-4)GlcNAc(b1-3)Gal(b1-4)GlcNAc(b1-6)]Man(a1-6)[GlcNAc(b1-3)Gal(b1-4)GlcNAc(b1-3)Gal(b1-4)GlcNAc(b1-2)Man(a1-3)]Man(b1-4)GlcNAc(b1-4)[Fuc(a1-6)]GlcNAc
Procedure, shortened: as §1

[33] = biological target: GlcNAc(b1-3)Gal(b1-4)GlcNAc(b1-3)Gal(b1-4)GlcNAc(b1-3)Gal(b1-4)GlcNAc(b1-2)Man(a1-3)[GlcNAc(b1-3)Gal(b1-4)GlcNAc(b1-3)Gal(b1-4)GlcNAc(b1-3)Gal(b1-4)GlcNAc(b1-2)Man(a1-6)]Man(b1-4)GlcNAc(b1-4)GlcNAc
Procedure, shortened: as §1

[34] = biological target: GlcNAc(b1-3)Gal(b1-4)GlcNAc(b1-3)Gal(b1-4)GlcNAc(b1-3)Gal(b1-4)GlcNAc(b1-2)Man(a1-3)[GlcNAc(b1-3)Gal(b1-4)GlcNAc(b1-3)Gal(b1-4)GlcNAc(b1-3)Gal(b1-4)GlcNAc(b1-2)Man(a1-6)]Man(b1-4)GlcNAc(b1-4)[Fuc(a1-6)]GlcNAc
Procedure, shortened: as §1

[35] = biological target: GlcNAc(b1-3)Gal(b1-4)GlcNAc(b1-3)Gal(b1-4)GlcNAc(b1-3)Gal(b1-4)GlcNAc(b1-2)[GlcNAc(b1-3)Gal(b1-4)GlcNAc(b1-3)Gal(b1-4)GlcNAc(b1-3)Gal(b1-4)GlcNAc(b1-6)]Man(a1-6)[GlcNAc(b1-3)Gal(b1-4)GlcNAc(b1-3)Gal(b1-4)GlcNAc(b1-3)Gal(b1-4)GlcNAc(b1-2)Man(a1-3)]Man(b1-4)GlcNAc(b1-4)[Fuc(a1-6)]GlcNAc
Procedure, shortened: as §1

[36] = biological target: GlcNAc(b1-3)Gal(b1-4)GlcNAc(b1-3)Gal(b1-4)GlcNAc(b1-3)Gal(b1-4)GlcNAc(b1-3)Gal(b1-4)GlcNAc(b1-2)Man(a1-3)[GlcNAc(b1-3)Gal(b1-4)GlcNAc(b1-3)Gal(b1-4)GlcNAc(b1-3)Gal(b1-4)GlcNAc(b1-3)Gal(b1-4)GlcNAc(b1-2)Man(a1-6)]Man(b1-4)GlcNAc(b1-4)GlcNAc
Procedure, shortened: as §1

[37] = biological target: GlcNAc(b1-3)Gal(b1-4)GlcNAc(b1-3)Gal(b1-4)GlcNAc(b1-3)Gal(b1-4)GlcNAc(b1-3)Gal(b1-4)GlcNAc(b1-2)Man(a1-3)[GlcNAc(b1-3)Gal(b1-4)GlcNAc(b1-3)Gal(b1-4)GlcNAc(b1-3)Gal(b1-4)GlcNAc(b1-3)Gal(b1-4)GlcNAc(b1-2)Man(a1-6)]Man(b1-4)GlcNAc(b1-4)[Fuc(a1-6)]GlcNAc
Procedure, shortened: as §1

[38] = biological target: GlcNAc(b1-3)Gal(b1-4)GlcNAc(b1-3)Gal(b1-4)GlcNAc(b1-3)Gal(b1-4)GlcNAc(b1-3)Gal(b1-4)GlcNAc(b1-2)[GlcNAc(b1-3)Gal(b1-4)GlcNAc(b1-3)Gal(b1-4)GlcNAc(b1-3)Gal(b1-4)GlcNAc(b1-3)Gal(b1-4)GlcNAc(b1-6)]Man(a1-6)[GlcNAc(b1-3)Gal(b1-4)GlcNAc(b1-3)Gal(b1-4)GlcNAc(b1-3)Gal(b1-4)GlcNAc(b1-3)Gal(b1-4)GlcNAc(b1-2)Man(a1-3)]Man(b1-4)GlcNAc(b1-4)[Fuc(a1-6)]GlcNAc
Procedure, shortened: as §1

B1: EULS2 M2 (Oryza sativa) (protein)
chain: MVYCRANPNYAMTARNGAVVLAPANPKDEYQHWIKDMRWSTSIKDEEGYPAFALVNKATGQAIKHSLGQSHPVRLVPYNPEVMDESVLWTESRDVGNGFRCIRMVNNIYLNFDAFHGDKYHGGVRDGTDIVLWKLCEGDSQRWKIQPYYILEQKLISEEDLNSAVDHHHHHH
Glc(b1-6)Glc
  glycan array binding signal (z-score): 1.05
GlcA(b1-3)Gal
  glycan array binding signal (z-score): -0.206
GlcA(b1-3)GlcNAc
  glycan array binding signal (z-score): -0.03
GlcA(b1-6)Gal
  glycan array binding signal (z-score): 0.412
[1]
  glycan array binding signal (z-score): -0.316
[2]
  glycan array binding signal (z-score): -0.843
[3]
  glycan array binding signal (z-score): -0.558
[4]
  glycan array binding signal (z-score): -0.293
[5]
  glycan array binding signal (z-score): -0.051
[6]
  glycan array binding signal (z-score): -0.203
[7]
  glycan array binding signal (z-score): -0.49
[8]
  glycan array binding signal (z-score): -0.264
[9]
  glycan array binding signal (z-score): -0.401
[10]
  glycan array binding signal (z-score): 0.201
[11]
  glycan array binding signal (z-score): -0.429
[12]
  glycan array binding signal (z-score): -0.618
[13]
  glycan array binding signal (z-score): -0.018
[14]
  glycan array binding signal (z-score): -0.386
[15]
  glycan array binding signal (z-score): 0.52
[16]
  glycan array binding signal (z-score): -1.14
[17]
  glycan array binding signal (z-score): -0.803
[18]
  glycan array binding signal (z-score): -0.269
[19]
  glycan array binding signal (z-score): -0.263
[20]
  glycan array binding signal (z-score): 1.81
[21]
  glycan array binding signal (z-score): -0.123
[22]
  glycan array binding signal (z-score): 0.113
[23]
  glycan array binding signal (z-score): -0.431
GlcNAc(b1-3)Fuc
  glycan array binding signal (z-score): -0.78
GlcNAc(b1-3)Gal
  glycan array binding signal (z-score): -0.404
[24]
  glycan array binding signal (z-score): -0.337
GlcNAc(b1-3)Gal(b1-4)Glc
  glycan array binding signal (z-score): -0.357
[25]
  glycan array binding signal (z-score): -0.346
[26]
  glycan array binding signal (z-score): -0.176
[27]
  glycan array binding signal (z-score): 0.837
[28]
  glycan array binding signal (z-score): 1.16
[29]
  glycan array binding signal (z-score): -0.053
[30]
  glycan array binding signal (z-score): 0.163
[31]
  glycan array binding signal (z-score): -0.087
[32]
  glycan array binding signal (z-score): 0.378
[33]
  glycan array binding signal (z-score): 0.026
[34]
  glycan array binding signal (z-score): 0.36
[35]
  glycan array binding signal (z-score): -0.203
[36]
  glycan array binding signal (z-score): -0.068
[37]
  glycan array binding signal (z-score): -0.087
[38]
  glycan array binding signal (z-score): -0.082
